Some of the results follow. Values were computed here from the reads of four pooled replicates and scatter widely.

This assay addresses T1, Pho4 (S. cerevisiae) (UniProt P07270).
T1 sequence: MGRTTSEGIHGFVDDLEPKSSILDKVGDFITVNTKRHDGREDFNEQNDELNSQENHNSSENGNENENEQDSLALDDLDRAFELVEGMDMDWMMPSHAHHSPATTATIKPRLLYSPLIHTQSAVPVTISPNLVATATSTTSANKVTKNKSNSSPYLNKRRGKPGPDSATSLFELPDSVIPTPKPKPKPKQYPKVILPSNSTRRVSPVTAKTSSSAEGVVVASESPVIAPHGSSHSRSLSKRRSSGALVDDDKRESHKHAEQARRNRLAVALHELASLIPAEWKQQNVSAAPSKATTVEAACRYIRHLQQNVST
Kind of assay: relative binding free energy (BET-seq); higher = weaker binding. The note with it: reference: library average.
In the case of CTTATCACGTGGTAGG, the “relative binding free energy” value worked out at 0.04 kcal/mol. As to TATTCCACGTGTTGTG, the “relative binding free energy” value is -0.04 kcal/mol.

Consider GATGGCACGTGTACGT, for which the “relative binding free energy” value is -0.01 kcal/mol. As to TGGGACACGTGAGCGA, the “relative binding free energy” value came out at 0.22 kcal/mol. In the case of TAAGTCACGTGTAGGA it was 0.3 kcal/mol. As for TTGTGCACGTGTGAAC, the “relative binding free energy” value was -0.01 kcal/mol. Then GCGTACACGTGTTGGT, with 0.08 kcal/mol. Consider TGTTCCACGTGATTGT, for which the “relative binding free energy” value came out at 0.13 kcal/mol. As to AGTGCCACGTGGAGTT, the “relative binding free energy” value is -0.15 kcal/mol. In the case of ATGTACACGTGCGAGG it was 0 kcal/mol; in that of CTTATCACGTGAAGTT, 0.46 kcal/mol; in that of TTCTGCACGTGGAGGT, -0.01 kcal/mol. Then ATCAACACGTGTTGGG, with 0.14 kcal/mol; and TAGACCACGTGTGTTG, with 0.01 kcal/mol. For CGAGTCACGTGAATTG, the “relative binding free energy” value was 0.42 kcal/mol. In the case of GAGCGCACGTGATAGT it was 0.18 kcal/mol; in that of TTCTGCACGTGTAAAT, 0.22 kcal/mol; in that of TATGTCACGTGGACAG, 0.01 kcal/mol.

As to TATATCACGTGTATAA, the “relative binding free energy” value amounted to 0.32 kcal/mol. Consider ATGTTCACGTGCGGGG, for which the “relative binding free energy” value was 0.32 kcal/mol. In the case of TCATACACGTGGTTTT it was -0.04 kcal/mol; in that of GTGGACACGTGATGTT, 0.2 kcal/mol. On to TTGTGCACGTGTACAT, for which the “relative binding free energy” value was -0.14 kcal/mol. In the case of ACATTCACGTGGGTGA it was 0.03 kcal/mol; in that of GGTGACACGTGGGTAA, -0.14 kcal/mol; in that of GAGCACACGTGGTGGT, -0.07 kcal/mol. Then GTAGTCACGTGGAATG, with 0.01 kcal/mol; and GTTTGCACGTGAATTT, with 0.4 kcal/mol; and GTGGGCACGTGTTCAG, with -0.02 kcal/mol. For GCGGACACGTGTGTGG, the “relative binding free energy” value was determined as 0.13 kcal/mol. Then ATGTACACGTGGCGAT, with -0.01 kcal/mol; and GTGATCACGTGGTTGC, with 0.02 kcal/mol.

Turning to GATCTCACGTGTTTTT, the “relative binding free energy” value is 0.29 kcal/mol. For GGTATCACGTGGTTAA, the “relative binding free energy” value was 0.14 kcal/mol. On to GTAGTCACGTGGGTCT, for which the “relative binding free energy” value was -0.06 kcal/mol. On to ATTTGCACGTGATAAG, for which the “relative binding free energy” value turned out to be 0.07 kcal/mol. Then TTATACACGTGTAATT, with 0.17 kcal/mol; and TATGGCACGTGGGGGA, with -0.1 kcal/mol; and GGTTACACGTGTATGG, with 0.15 kcal/mol. Turning to AGCGGCACGTGGGGAT, the “relative binding free energy” value is -0.12 kcal/mol. Consider TTGATCACGTGAGATT, for which the “relative binding free energy” value is 0.34 kcal/mol. Then GTTTACACGTGCAAGT, with 0.12 kcal/mol; and TTAGTCACGTGGGGGT, with -0.08 kcal/mol; and TGGTTCACGTGGTATG, with 0.27 kcal/mol. In the case of TATTTCACGTGGATAT, the “relative binding free energy” value was 0.2 kcal/mol. Take AGCATCACGTGTTTTT: the “relative binding free energy” value was 0.17 kcal/mol. In the case of TAATACACGTGTCTGG it was 0.05 kcal/mol; in that of GTAGGCACGTGGGCGG, -0.2 kcal/mol; in that of AAAGGCACGTGGGTAG, -0.21 kcal/mol.

In the case of CTGTGCACGTGTTGAA, the “relative binding free energy” value stood at 0.08 kcal/mol. Turning to AGTAGCACGTGTTGAG, the “relative binding free energy” value came out at 0.05 kcal/mol. Take GGGCTCACGTGGAGAT: the “relative binding free energy” value was found to be 0.26 kcal/mol.

For AGATGCACGTGGGCTC, the “relative binding free energy” value is -0.05 kcal/mol. Then ATAGGCACGTGTCTAT, with -0.04 kcal/mol. For AGTGTCACGTGCTTGG, the “relative binding free energy” value is -0.04 kcal/mol. In the case of TGGGGCACGTGGGGCG it was -0.17 kcal/mol; in that of GGCATCACGTGGGCGG, 0.15 kcal/mol; in that of AGCTACACGTGTCGGG, 0.22 kcal/mol. Take GAGCTCACGTGTGTGT: the “relative binding free energy” value was found to be 0.17 kcal/mol. For the sequence TTAGTCACGTGAAAGG, the “relative binding free energy” value came out at 0.2 kcal/mol. In the case of TGTGGCACGTGAGTAG it was 0.2 kcal/mol; in that of CATGACACGTGGGGGC, -0.09 kcal/mol; in that of GGCATCACGTGATGCG, 0.3 kcal/mol. In the case of TATTACACGTGCGTAG it was 0.09 kcal/mol. Then GCGTGCACGTGGGGCG, with -0.19 kcal/mol.

CGTTTCACGTGATGCT: the “relative binding free energy” value worked out at 0.36 kcal/mol.

Consider GAAGTCACGTGTATTG, for which the “relative binding free energy” value is 0 kcal/mol. On to AGGGGCACGTGTTGCG, for which the “relative binding free energy” value was -0.11 kcal/mol.

Regarding CTCGTCACGTGATGTG, the “relative binding free energy” value was 0.14 kcal/mol. As to CGTGGCACGTGCGTGG, the “relative binding free energy” value is -0.22 kcal/mol. On to TGAGTCACGTGCTAAT, for which the “relative binding free energy” value is 0.3 kcal/mol. Then TGGTGCACGTGACTTG, with 0.03 kcal/mol; and GGGGACACGTGCTGAG, with -0.01 kcal/mol; and TGGGGCACGTGTATAA, with -0.23 kcal/mol. Then ATAGGCACGTGATAGA, with -0.12 kcal/mol; and TGGATCACGTGGTCAA, with 0.15 kcal/mol; and AGGATCACGTGAGGTG, with 0.24 kcal/mol. As for GATATCACGTGGCGTG, the “relative binding free energy” value came out at 0.06 kcal/mol. In the case of AGAATCACGTGTAGTG it was 0.15 kcal/mol; in that of GAGTGCACGTGTGGCT, -0.05 kcal/mol; in that of ACGTACACGTGTGGGG, 0.04 kcal/mol.

With GATAGCACGTGCTGTT, the “relative binding free energy” value is -0.08 kcal/mol. Consider AGGTACACGTGATAAG, for which the “relative binding free energy” value was found to be 0.13 kcal/mol. Take ATTTGCACGTGTCAGT: the “relative binding free energy” value is 0.07 kcal/mol. For the sequence AGTATCACGTGTGGCG, the “relative binding free energy” value is 0.06 kcal/mol. For CGTTGCACGTGAATGT, the “relative binding free energy” value came to 0.22 kcal/mol. In the case of AATGACACGTGGTTAG it was 0.03 kcal/mol; in that of GGAGGCACGTGATTGC, 0.13 kcal/mol. As to AGGGGCACGTGGGTGG, the “relative binding free energy” value is -0.24 kcal/mol. Then TATTTCACGTGGAAGT, with 0.4 kcal/mol. With AATCGCACGTGGTTAG, the “relative binding free energy” value is -0.07 kcal/mol. As for AATAGCACGTGAGAGT, the “relative binding free energy” value amounted to 0.06 kcal/mol.

Consider AGCGGCACGTGGGCAG, for which the “relative binding free energy” value is -0.24 kcal/mol. Take GACTTCACGTGAGTTT: the “relative binding free energy” value is 0.56 kcal/mol. In the case of GAGCACACGTGTGGGT it was 0.06 kcal/mol; in that of TTGGTCACGTGAATGG, 0.31 kcal/mol. In the case of GGGAGCACGTGCTCGG it was -0.15 kcal/mol; in that of GGTTTCACGTGCTAGT, 0.09 kcal/mol. Then ATTTTCACGTGCGATA, with 0.21 kcal/mol.

Turning to ATTTTCACGTGTGACG, the “relative binding free energy” value came to 0.37 kcal/mol.

As to ATAGACACGTGGGGCG, the “relative binding free energy” value was -0.08 kcal/mol. Turning to AGCTGCACGTGTGTAT, the “relative binding free energy” value is -0.07 kcal/mol. In the case of GATTGCACGTGTGAGT it was 0.21 kcal/mol. In the case of ATCGTCACGTGTGAGG it was 0.16 kcal/mol; in that of GGGTACACGTGATTCG, 0.15 kcal/mol.

For the sequence CGGGTCACGTGTGTGT, the “relative binding free energy” value is 0.08 kcal/mol. On to CGTTGCACGTGTCTGA, for which the “relative binding free energy” value came out at 0.2 kcal/mol. In the case of TTTTGCACGTGAGAGA it was 0.26 kcal/mol.

For the sequence AATCGCACGTGAGGTT, the “relative binding free energy” value is 0.25 kcal/mol.

Take GTAATCACGTGGGGAC: the “relative binding free energy” value is 0.12 kcal/mol.

For the sequence GCTGTCACGTGCTGTG, the “relative binding free energy” value turned out to be 0.11 kcal/mol. Regarding GGCGTCACGTGGAGGC, the “relative binding free energy” value stood at 0.11 kcal/mol.

As to TGTATCACGTGGAATG, the “relative binding free energy” value was 0.23 kcal/mol. Then GTACTCACGTGGTATG, with 0.01 kcal/mol; and TTTGTCACGTGGGAGG, with -0.03 kcal/mol.
